# Among all 200,000 compounds or so, about 4,500 (2.2%) were called active. Inconclusive means that the source gave no clear call. Such entries were picked first, then a sample of the others. Calls follow the shape of the dose curve; as a rule, active = well fitted inhibition curve with a large enough effect; inconclusive = small, poorly fitted or top-dose-only effect, or effect the other way; inactive = flat fitted curve, though single readings scatter. Potencies beside an inconclusive call are fits to weak or partial responses and may not hold up.
# Target: Cruzipain (Trypanosoma cruzi) (UniProt P25779)
# Sequence of UniProt P25779 (P25779 whole entry, looked up): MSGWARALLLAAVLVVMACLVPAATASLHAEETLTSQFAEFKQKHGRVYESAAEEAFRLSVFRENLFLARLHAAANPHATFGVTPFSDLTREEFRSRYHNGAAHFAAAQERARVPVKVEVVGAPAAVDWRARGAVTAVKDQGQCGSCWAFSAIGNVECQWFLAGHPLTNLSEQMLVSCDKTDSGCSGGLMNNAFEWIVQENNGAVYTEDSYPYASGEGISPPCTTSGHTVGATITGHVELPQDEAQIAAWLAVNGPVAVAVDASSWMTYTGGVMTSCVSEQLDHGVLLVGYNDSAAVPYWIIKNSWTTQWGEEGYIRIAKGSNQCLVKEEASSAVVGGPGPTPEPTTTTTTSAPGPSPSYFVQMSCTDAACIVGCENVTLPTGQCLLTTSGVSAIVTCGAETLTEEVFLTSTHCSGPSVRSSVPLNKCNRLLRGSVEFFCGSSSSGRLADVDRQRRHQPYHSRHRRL
# Assay: qHTS Assay for Promiscuous and Specific Inhibitors of Cruzain (without detergent); also: nearly all actives have a fitted effect of over 40% in size;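 as to max response, negative = inhibition: plate controls were enzyme without inhibitor for no effect and buffer without enzyme for full effect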
# Settings: purified cruzain, Z-FR-AMC fluorescence, no detergent
# Summary of the method: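 Purified cruzain at 1.5 nM, pre-incubated 15 min with compound at room temperature in 100 mM sodium acetate pH 5.5, 5 mM DTT, 0.00005% Triton X-100. Reaction started with 2 uM Z-FR-AMC; AMC fluorescence increase over 60 s gives rate.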
# Potency is read from the fitted curve at half-maximal effect; tags tell the direction and shape of the fitted curve.
SMILES,Potency,"max response, negative = inhibition"
C=CCN(CC=C)S(=O)(=O)c1ccc(C(=O)Nc2sc3c(c2C(N)=O)CCCCC3)cc1,"inconclusive: 6.31 µM [inhibitor, single point]",
COc1cc(C2C=C(C34CC5CC(CC(C5)C3)C4)NC(=S)N2)cc(OC)c1OC (centres undefined),"inconclusive: 39.8 µM [activator, single point]",
CC(C)c1ccc(NC(=O)N2CCN(c3ccc(Cl)c(Cl)c3)CC2)cc1,"inconclusive: 39.8 µM [inhibitor, single point]",
Cc1nc2c(-c3ccccc3)c(C)nn2c(C)c1CCC(=O)NCCc1ccccc1,"inconclusive: 39.8 µM [activator, single point]",
CC(Oc1ccc(-c2ccccc2)c(F)c1)c1ccn(S(=O)(=O)c2ccc(Cl)cc2)n1 (centres undefined),"inconclusive: 25.1 µM [inhibitor, single point]",
Cc1cc(/C=N/NC(N)=S)c(C)n1-c1ccc(Cl)cc1,"inconclusive: 20 µM [inhibitor, partial curve, poor fit]",
O=C(NCc1ccccc1Cl)C1CCCN(C(=O)c2cnn(-c3ccc(F)cc3)c2-n2cccc2)C1 (centres undefined),"inconclusive: 39.8 µM [activator, single point]",
Cc1cccc(N2CCN(C(=O)c3cnc4c(C)cccn4c3=O)CC2C)c1 (centres undefined),,inactive: 0.628%
O=C(COc1cccc(Cl)c1)N1CCC(c2nc3ccccc3o2)CC1,,inactive: 7.58%
Cn1c(C(=O)Nc2ccc3c(c2)OCO3)cc2sccc21,active: 25.1 µM,
COc1cccc(CC(=O)Nc2c(C(=O)N3CCN(c4ccccc4F)CC3)oc3ccccc23)c1,"inconclusive: 31.6 µM [activator, partial curve]",
CCCC1=Nc2cc(C(=O)NC3CCCCC3)ccc2Sc2ccc(C)cc21,,inactive: -18.3%
Cc1cc(C)c2c(=O)c3c(oc2c1)C(=O)N(CCCOC(C)C)C3c1ccccc1F (centres undefined),"inconclusive: 25.1 µM [inhibitor, single point]",
CC(=O)c1cccc(NC(=O)c2ccc3c(c2)N(Cc2ccc(C)cc2)CCS3)c1,active: 12.6 µM,
COc1ccc(CCNC(=O)Cn2c(=O)nc(-c3ccccc3)c3cc(Cl)ccc32)cc1OC,,inactive: 1.04%
O=C1N/C(=N/N=C/c2ccccc2)SC1(c1ccccc1)c1ccccc1,active: 3.98 µM,
O=[N+]([O-])c1cc(/C=N/Nc2nc3ccccc3[nH]2)c(O)cc1O,"inconclusive: 39.8 µM [inhibitor, single point]",
CCOc1ccc(NC(=O)c2c(NCc3cc(OC)c(OC)cc3OC)sc3c2CCCC3)cc1,"inconclusive: 20 µM [activator, partial curve]",
CCOC(=O)/C=c1\s/c(=C\c2ccc(C)cc2)c(=O)n1CC(=O)NCc1ccco1,active: 15.8 µM,
Cc1ccc2nc(Nc3nc(-c4ccccc4)cc(=O)[nH]3)nc(C)c2c1,"inconclusive: 39.8 µM [activator, single point]",
CC1(C)C(=O)C(c2ccccc2)=C2CN3C(=O)N(CCc4ccccc4)C(=O)C3(Cc3ccc(C(F)(F)F)cc3)C=C21 (centres undefined),"inconclusive: 25.1 µM [inhibitor, single point]",
Brc1ccc(CN2CCNCC2)s1,,inactive: -8.68%

SMILES,Potency,"max response, negative = inhibition"
O=C(Cc1ccc(Cl)cc1)Nc1ccc2oc(-c3ccc(F)cc3)nc2c1,"inconclusive: 3.98 µM [inhibitor, single point]",
CC(=O)c1ccc(N2CCC(c3cc(-c4ccc(Cl)cc4Cl)n[nH]3)CC2)c([N+](=O)[O-])c1,"inconclusive: 31.6 µM [inhibitor, single point]",
Cc1nc2c(=O)n(C)c(=O)nc-2n(C)n1,active: 0.501 µM,
CCCCCCNC(=O)c1cc(-c2ccco2)nc2ccccc12,"inconclusive: 39.8 µM [activator, single point]",
COc1ccc(C2C(C(=O)N3CCN(c4ccccc4)CC3)c3ccccc3C(=O)N2C)cc1OC (centres undefined),"inconclusive: 39.8 µM [activator, single point]",
Cc1c(/C=N/NC(=O)c2cccnc2)c2ccccn2c1C(=O)c1ccc(F)cc1,"inconclusive: 39.8 µM [activator, single point]",
CCOc1ccc(CCNC(=O)c2ccc(CSCc3ccccc3C)o2)cc1OCC,"inconclusive: 39.8 µM [activator, single point]",
COc1cc(C2CC(=O)c3c([nH]c(C(=O)OC4CCCC4)c3C)C2)cc(OC)c1OC (centres undefined),"inconclusive: 39.8 µM [activator, single point]",
COc1ccc(-c2cc(C(F)(F)F)n3nc(C(=O)NCc4ccco4)cc3n2)cc1,"inconclusive: 25.1 µM [activator, partial curve]",
O=C(Nc1ccc(Cl)cc1)Nc1nnc(SCc2ccccc2)s1,active: 7.94 µM,
O=C(Nc1nnc(SCc2ccccc2)s1)c1cccc([N+](=O)[O-])c1,"inconclusive: 31.6 µM [inhibitor, single point]",
CSCCC(NC(=O)c1ccc([N+](=O)[O-])cc1Cl)C(=O)OCC(=O)NC1CCCC(C)C1C (centres undefined),"inconclusive: 39.8 µM [inhibitor, single point]",
COc1cccc(Cn2c(=O)n(Cc3ccccc3)c(=O)c3c2c2cc(OC)ccc2n3C)c1,,inactive: 8.33%
Cc1cc(C)cc(-n2c(SCC(=O)Nc3ccc4c(c3)OCO4)nc3c([nH]c4ccccc43)c2=O)c1,active: 6.31 µM,
COc1ccc(CNC(=O)C(=O)NCC(c2cccnc2)N2CCN(c3ccccc3)CC2)cc1 (centres undefined),,inactive: -4.39%
C/C(CCN1CCc2nc(-c3ccccc3)c(-c3ccccc3)cc2C1)=N\O[C@H](C)c1cn([C@H](CO)Cc2ccccc2)nn1,"inconclusive: 39.8 µM [activator, single point]",
CC1=C(c2ccc(Cl)cc2)S(=O)(=O)N=C1N1CCN(c2cc(C)ccc2C)CC1,"inconclusive: 10 µM [activator, partial curve, poor fit]",
COc1ccccc1CNC(=O)C1CCN(S(=O)(=O)Cc2ccccc2)CC1,,inactive: 1.58%
COc1ccc(-c2csc(NC(=O)c3ccc(S(=O)(=O)N4CCc5ccccc5C4)cc3)n2)cc1,active: 5.01 µM,
O=C(Nc1ccccc1C(=O)NCC1CCCO1)c1ccc(Cl)cc1Cl (centres undefined),,inactive: 3.83%
O=C(Nc1cccc(Cl)c1)c1ccc(-n2cncn2)c([N+](=O)[O-])c1,"inconclusive: 0.1 µM [inhibitor, full curve, poor fit]",
CCCCC(=O)Nc1ccc(C(=O)Nc2ccc(OC)cc2[N+](=O)[O-])cc1,active: 15.8 µM,

SMILES,Potency,"max response, negative = inhibition"
COC(=O)[C@@]1(Cc2ccc(OC)cc2)[C@H]2c3cc(C(=O)N4CCCC4)n(Cc4ccccn4)c3C[C@H]2CN1C(=O)c1ccccc1,"inconclusive: 25.1 µM [activator, partial curve]",
Cc1cccc(N2CCN(C(=O)c3cnn(-c4ccccc4)c3C3CCN(C(=O)OC(C)(C)C)CC3)CC2)c1C,,inactive: -12.2%
Cc1cc(C)cc(N=c2c([N+](=O)[O-])nn(-c3cccc(Cl)c3)n2O)c1,"inconclusive: 25.1 µM [inhibitor, single point]",
O=C1CSC(c2cn(-c3ccccc3)nc2-c2cc3ccccc3oc2=O)N1Cc1ccccc1 (centres undefined),"inconclusive: 31.6 µM [inhibitor, single point]",
COCCn1ccc2c(OCC(=O)Nc3cccc(C(F)(F)F)c3)cccc2c1=O,"inconclusive: 25.1 µM [activator, partial curve]",
CCOC(=O)c1c(S(=O)(=O)N2CCC(C(=O)NCc3ccccc3Cl)CC2)c(C)n(C)c1C,"inconclusive: 25.1 µM [activator, single point]",
O=C(Nc1ccccc1)c1cc2c(=O)c3ccccc3oc2nc1C(F)(F)F,"inconclusive: 39.8 µM [inhibitor, single point]",
NS(=O)(=O)c1ccc(N/C=C\C(=O)c2ccc3ccccc3c2)cc1,active: 6.31 µM,
O=c1c(CN2CCN(c3cccc(Cl)c3)CC2)coc2c(Cl)cc(Cl)cc12,"inconclusive: 39.8 µM [inhibitor, single point]",
CS(=O)(=O)N1CCC(C(=O)Nc2ccc(OCc3ccccc3)cc2)CC1,"inconclusive: 31.6 µM [inhibitor, single point]",
O=C1Cc2cc(S(=O)(=O)Nc3ccc(OC(F)(F)F)cc3)cc3c2N1CCC3,"inconclusive: 39.8 µM [activator, single point]",
Cc1ccccc1OCC(=O)Nc1ccc2nc(SCC(=O)N3CCCC3)sc2c1,,inactive: 13%
COc1cccc(CNc2cc(CSc3ccc(Cl)cc3)nc(C)n2)c1,,inactive: 3.31%
Clc1cccc(CN2CCC(Cc3ccccc3)CC2)c1,,inactive: 2.63%
COc1ccc2[nH]cc(CCNC(=O)Nc3cc(C)cc(C)c3)c2c1,"inconclusive: 0.0398 µM [activator, full curve, poor fit]",
COCC(=O)Nc1nnc(COc2ccc(Cl)cc2)s1,"inconclusive: 25.1 µM [inhibitor, single point]",
Cc1ccc2nc3c(cc(C(=O)NC4CCCC4)c(=N)n3C(C)C)c(=O)n2c1,,inactive: 17%
COc1ccccc1Nc1nc(-c2ccccc2)c(CC(=O)O)s1,active: 25.1 µM,
COc1ccc2c(c1)c1c(c(=O)n(-c3cccc(C)c3)c(=O)n1CC(=O)NCCC1=CCCCC1)n2C,,inactive: -0.817%
CCCc1ccc(OCC(=O)Nc2sc3c(c2C(=O)OCC)CCC(C(C)(C)C)C3)cc1 (centres undefined),,inactive: -0.223%
